According to the supplement of paper PMC3334620:
In all, about 33,000 sequences were measured (“E-score (-0.5 to 0.5)”: median about -0.013, highest 2% from about 0.3 on). This is one part of the list.

The sequences below were run against T1, Msn1 (UniProt P22148) (assay: PBM E-score (8-mer binding enrichment) (E-score (-0.5 to 0.5)); higher = stronger / more preferred TF binding; most listed sequences are background and not binding sites). Conditions: protein concentration: 200 nM; construct: GST-full length.
T1 sequence: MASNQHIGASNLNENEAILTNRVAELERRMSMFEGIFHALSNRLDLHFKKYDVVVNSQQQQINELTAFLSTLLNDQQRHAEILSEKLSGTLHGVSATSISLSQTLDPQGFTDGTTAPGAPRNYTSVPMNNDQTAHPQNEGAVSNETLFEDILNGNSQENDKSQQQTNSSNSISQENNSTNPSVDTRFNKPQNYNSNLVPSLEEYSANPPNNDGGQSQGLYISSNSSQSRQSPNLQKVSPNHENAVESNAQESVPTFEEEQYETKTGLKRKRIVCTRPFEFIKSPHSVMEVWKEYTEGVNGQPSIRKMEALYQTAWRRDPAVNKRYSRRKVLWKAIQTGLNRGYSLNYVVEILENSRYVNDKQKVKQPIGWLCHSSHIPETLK
In short: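 For each ungapped eight-base word taken together with its reverse complement, the Universal PBM Analysis Suite assigned an E-score. Binding data came from GST-tagged yeast transcription factors, applied at about 100-200 nM, on universal all-10-mer Agilent arrays made double-stranded by primer extension. Fluorescent anti-GST marked bound protein, and scans were normalised with masliner.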

Row | Sequence | PBM E-score
1 | TAGAACCA | -0.0411
2 | GCAAGATA | 0.08
3 | CCTGTGGA | -0.336
4 | AGAGGTGC | -0.263
5 | CAGGCACA | -0.299
6 | CTAGATGA | -0.0897
7 | GAGGTTTA | -0.146
8 | GTAATAAC | -0.129
9 | GTGCTGGA | -0.0881
10 | ATGCCGGC | 0.0732
11 | GCGACCGC | -0.114
12 | ACGCTAAC | 0.0391
13 | CCTACCCC | -0.352
14 | ATCTTTCG | 0.0112
15 | AACAGTGG | -0.0992
16 | GATAGTAC | 0.154
17 | CTGCCGAC | -0.109
18 | CCCCGGAA | -0.218
19 | CAACCTGG | -0.0352
20 | ACATAAAA | 0.178
21 | AAATCAGA | 0.191
22 | ACTAACTC | -0.0494

Row | Sequence | PBM E-score
23 | ACGTCGAT | 0.0102
24 | CCCCCACA | -0.238
25 | CCACGCCC | -0.289
26 | ACTTGTCT | 0.407
27 | AGACGGGA | -0.11
28 | ATTCTCCA | 0.0925
29 | TACCATGA | 0.0749
30 | AGGGCCCG | -0.206
31 | GTCTTTCA | -0.012
32 | ACCAATCA | 0.0321
33 | ACGTTTGC | 0.00697
34 | ACAGACAT | 0.399
35 | CAATTAGC | -0.0381
36 | CCGTCATA | 0.00889
37 | ACACTTTA | 0.0955
38 | CTGATAAG | 0.21
39 | AAGCGGAC | 0.014
40 | CGAGAAAC | -0.00756
41 | ATCGGGAG | -0.0192
42 | ATTCGCTG | 0.00671
43 | AACCGCTT | 0.051
44 | GACCGCGC | -0.164

Row | Sequence | PBM E-score
45 | GCGAAGTA | -0.0188
46 | CACGGTGG | -0.0943
47 | ACCGGGGC | -0.2
48 | ACAATGAG | -0.106
49 | CCACGCTC | -0.283
50 | ACGGTGAC | -0.0603
51 | ATCGACAC | -0.0458
52 | CTTCACAA | -0.0814
53 | GTTTCTGA | 0.0636
54 | TGCTCGAA | -0.168
55 | CGCGAGCA | -0.0965
56 | ATAGAATG | 0.0417
57 | CCCTAAAC | -0.171
58 | ACCGTAAC | -0.0464
59 | AGACTAAC | 0.0305
60 | CGGACCAA | 0.256
61 | GGGAGTTA | -0.121
62 | CGGGTCTC | 0.0153
63 | AACCAGAT | 0.0243
64 | ATTTCTGA | -0.0224
65 | TACCACCA | -0.101
66 | GCATGGGC | -0.183

Row | Sequence | PBM E-score
67 | CTAAACGC | 0.129
68 | AAGCCCCC | -0.41
69 | AGTTTTCG | 0.0416
70 | GGCCTGCA | -0.288
71 | ATACTTAG | 0.138
72 | GGGGCAAC | -0.191
73 | CCCTCATA | -0.117
74 | ATTCAACG | 0.149
75 | ATTGTAAA | 0.0714
76 | ACCTATAC | -0.00208
77 | ATGGACTC | 0.0714
78 | TATAGATA | 0.0139
79 | CTGGGTCA | -0.203
80 | GAGCTGTA | -0.045
81 | GGCGGCAC | -0.081
82 | CCCTGTTA | -0.113
83 | AGTGGTGG | -0.0804
84 | AAATAAAT | 0.155
85 | CATGTGCG | 0.177
86 | AGGGGCTA | -0.218
